For three substances, binding results are on record in PMC6522533 (2019).

By UniProt entry, the sequences of proteins in these tests, tags left out.
UniProt O35253: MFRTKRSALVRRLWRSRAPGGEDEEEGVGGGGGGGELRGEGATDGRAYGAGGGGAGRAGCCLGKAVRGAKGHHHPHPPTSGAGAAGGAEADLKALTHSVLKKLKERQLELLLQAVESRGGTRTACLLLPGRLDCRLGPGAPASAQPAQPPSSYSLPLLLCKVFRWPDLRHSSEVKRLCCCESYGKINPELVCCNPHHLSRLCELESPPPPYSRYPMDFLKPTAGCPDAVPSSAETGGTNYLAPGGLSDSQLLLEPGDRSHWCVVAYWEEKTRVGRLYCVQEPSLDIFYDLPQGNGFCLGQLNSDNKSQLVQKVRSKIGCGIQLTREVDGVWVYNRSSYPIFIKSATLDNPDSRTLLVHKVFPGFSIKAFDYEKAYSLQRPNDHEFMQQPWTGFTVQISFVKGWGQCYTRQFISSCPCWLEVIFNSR

One test addresses GST-Smad7 (UniProt O35253). The test can be described thus: pull-down; GST-Smad7 or GST on glutathione-agarose beads with 6xHis-β-catenin; 5 µg protein, NETN buffer (100 mM NaCl, 20 mM Tris-HCl pH 8, 0.5 mM EDTA, 0.5% NP-40), overnight at 4 °C; western blot; both purified. A general note: In western blotting, separated proteins are transferred to a membrane and probed.
The target in a further test is Smad7-Flag (UniProt O35253). Nature of the test: co-IP; lysates of C2C12 myoblasts transiently transfected with Smad7-Flag; IP with β-catenin or Flag antibody, IgG as control; western blot for β-catenin.
For test [1], the target named is Smad7 (endogenous) (mouse (endogenous in tibialis anterior muscle and C2C12)) (UniProt O35253). The test can be described thus: co-IP; total protein lysates (NP-40 lysis buffer) of mouse tibialis anterior muscle and C2C12 myoblasts; IP with Smad7 antibody (text: β-catenin and Smad7 antibodies), ImmunoCruz Optima Kit; western blot.
Another test addresses T1, GST-β-catenin aa1–106 (Mus musculus (Mouse), UniProt Q02248).
T1 chain: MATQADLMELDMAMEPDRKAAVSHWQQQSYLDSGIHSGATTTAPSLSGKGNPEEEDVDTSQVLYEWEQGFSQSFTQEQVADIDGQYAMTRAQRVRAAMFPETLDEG
The test can be described thus: pull-down; GST-β-catenin (FL or fragments, molar equivalents) on glutathione-agarose beads with Smad7 freed of GST by thrombin; NETN buffer, overnight at 4 °C; immunoblot with anti-Smad7 polyclonal antibody; both purified.

The target in another test is T2, GST-β-catenin aa575–683 (Mus musculus (Mouse), UniProt Q02248).
T2 chain: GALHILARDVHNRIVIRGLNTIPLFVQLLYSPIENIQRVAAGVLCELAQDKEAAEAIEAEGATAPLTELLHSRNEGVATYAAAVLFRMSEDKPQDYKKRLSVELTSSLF
The test is described as above.

Test [2] concerns the target GST-β-catenin full length (FL) (UniProt Q02248). The description is as above.
The next test deals with T3, GST-β-catenin aa422–683 (Mus musculus (Mouse), UniProt Q02248).
T3 chain: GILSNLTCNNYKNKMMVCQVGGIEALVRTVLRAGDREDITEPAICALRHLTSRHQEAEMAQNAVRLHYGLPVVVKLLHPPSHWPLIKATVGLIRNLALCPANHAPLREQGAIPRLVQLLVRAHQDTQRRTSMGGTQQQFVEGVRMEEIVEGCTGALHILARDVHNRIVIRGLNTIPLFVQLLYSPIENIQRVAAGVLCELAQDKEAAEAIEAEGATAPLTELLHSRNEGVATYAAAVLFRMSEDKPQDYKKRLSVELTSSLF
The test is described as above.

The target in another test is T4, GST-β-catenin aa1–574 (Mus musculus (Mouse), UniProt Q02248).
T4 chain: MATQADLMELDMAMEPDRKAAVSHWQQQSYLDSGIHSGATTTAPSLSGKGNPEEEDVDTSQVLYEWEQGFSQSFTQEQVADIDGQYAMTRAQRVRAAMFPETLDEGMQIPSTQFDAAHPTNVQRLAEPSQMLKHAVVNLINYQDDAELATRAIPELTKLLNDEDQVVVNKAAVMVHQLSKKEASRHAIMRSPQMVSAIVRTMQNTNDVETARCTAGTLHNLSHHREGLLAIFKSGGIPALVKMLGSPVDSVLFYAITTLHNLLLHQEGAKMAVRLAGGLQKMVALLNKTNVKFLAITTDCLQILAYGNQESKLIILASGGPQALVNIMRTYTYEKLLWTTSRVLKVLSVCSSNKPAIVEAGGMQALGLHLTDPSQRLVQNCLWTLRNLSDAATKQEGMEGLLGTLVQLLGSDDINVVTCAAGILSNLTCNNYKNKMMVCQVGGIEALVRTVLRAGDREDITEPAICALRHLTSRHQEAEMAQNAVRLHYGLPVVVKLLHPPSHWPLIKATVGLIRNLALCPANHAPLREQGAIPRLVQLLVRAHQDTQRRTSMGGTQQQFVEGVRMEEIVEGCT
The test is described as above.

For the next test, the target named is T5, GST-β-catenin aa575–696 (Mus musculus (Mouse), UniProt Q02248).
T5 chain: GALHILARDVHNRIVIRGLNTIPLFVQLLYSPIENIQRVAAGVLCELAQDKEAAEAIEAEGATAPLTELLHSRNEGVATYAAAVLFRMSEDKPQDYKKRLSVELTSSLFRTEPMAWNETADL
The description is as above.

A further test has as its target T6, GST-β-catenin aa120–683 (Mus musculus (Mouse), UniProt Q02248).
T6 chain: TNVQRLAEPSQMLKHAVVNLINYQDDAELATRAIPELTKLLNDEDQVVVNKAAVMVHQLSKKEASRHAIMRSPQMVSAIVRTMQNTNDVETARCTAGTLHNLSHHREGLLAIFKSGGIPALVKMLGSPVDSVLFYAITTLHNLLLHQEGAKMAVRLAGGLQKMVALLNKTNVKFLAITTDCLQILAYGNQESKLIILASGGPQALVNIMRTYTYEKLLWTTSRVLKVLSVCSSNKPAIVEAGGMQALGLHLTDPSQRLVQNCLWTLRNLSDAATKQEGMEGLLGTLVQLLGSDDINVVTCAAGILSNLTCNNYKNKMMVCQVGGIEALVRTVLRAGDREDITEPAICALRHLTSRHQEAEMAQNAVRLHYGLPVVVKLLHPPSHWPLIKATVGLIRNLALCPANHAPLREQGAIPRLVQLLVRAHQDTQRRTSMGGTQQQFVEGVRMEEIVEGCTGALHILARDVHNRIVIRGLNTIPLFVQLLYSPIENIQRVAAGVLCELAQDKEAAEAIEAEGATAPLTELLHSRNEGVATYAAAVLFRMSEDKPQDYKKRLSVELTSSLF
The test is described as above.

Results are given in words; binding and its absence hold for the method and conditions named. For some of these results: Binding seen in cells or lysates may run through a third protein. Some binding calls cover weakened binding; strength is not graded here.

“6xHistidine (6xHis)-β-catenin fusion protein (from UniProt Q02248 1-781)”: the binding result in the test with GST-Smad7 is “binds”.
As for “β-catenin (endogenous) (from UniProt Q02248 1-781)”, the binding entry (in the test with Smad7-Flag; in test [1]) was “binds” in each case.
On to “Smad7 (GST tag removed by thrombin) (from UniProt O35253 1-426)”, for which the binding result is listed as “no binding” with GST-β-catenin aa1–106; “binds” with GST-β-catenin aa575–683; “binds” in test [2]; “binds” with GST-β-catenin aa422–683; “no binding” with GST-β-catenin aa1–574; “binds” in the test with GST-β-catenin aa575–696. The binding result with GST-β-catenin aa120–683 was “binds”.
